# Data as given in the supplement of paper PMC11417369.
# The other results are listed elsewhere or left out.
# Tested on: PfSIP2 AP2 domain 1 (GST-tagged)
# Experiment: gcPBM binding intensity (ln(normalized median fluorescence intensity)); higher = stronger DNA binding
# How it was run: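 Alexa488 anti-GST antibody, scanned at 488 nm, detected GST-tagged P. falciparum DNA-binding domains that had been expressed in E. coli and incubated for 1 h on an Agilent 4 × 180k array. The array carried primer-extended double-stranded 36-bp intergenic genomic probes and negative controls. Binding intensity is the highest Masliner-normalised natural-log median intensity across replicate spots of either orientation of each probe.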
row,Sequence,gcPBM binding intensity (ln)
1,AATATAAGAATATATACACACATAAATACATACATA [CACACA_site4128],7.01
2,TTTTTAAAACCTTACATACACACAAATATATATATA [CACACA_site678],8.49
3,TGTTCCGAAGGTTGTACACACATAGAAATATACATA [CACACA_site3874],7.04
4,TGAATTCATAGCAGTTGTACATTGCATGAAGAAACG [XGTACX_site3312],7.08
5,TCTTGTATACGGCATGCATGTTAGCACATACGGACA [TGCATGCA_site146],6.94
6,AATACTTTTTATTTAGTGCATAAGAAAATATAAATC [GTGCAC_site9875],9.2
7,TATAAAATATGTATGAGGAATAAAATTAAAAAAAAA [TGCATGCA_negctrl_site178],6.68
8,AAACAAAAAAACTACAGTACTTTTTTCAATTCCCCT [XGTACX_site7541],6.93
9,TATATGTTTACTTAATGTACTTACATTTTTATAACA [XGTACX_site1100],6.91
10,AAAATTAACCGTAACACACACACATATATATATATA [CACACA_site3964],9.78
11,ACATAAATAATAAAAACACACATATGTACTTATATA [CACACA_site8581],7.01
12,TTATTAATTTTTATTTTTAAATCACAAAAGATATAA [CACACA_negctrl_site787],6.83
13,CATATTTGTATATGCACACATAAATTTTTCCATTTC [CACACA_site3467],7.55
14,AAATTTTTAAACAGCACACATAAATATAATATATAT [CACACA_site2208],7.27
15,GACATTAAAATGAAATATACATATATATGTATATAT [TGCATGCA_negctrl_site601],7.24
16,TTACATTTTTGAAATAGATACATACACGTGTATGTA [CACACA_negctrl_site1311],7.03
17,AAATTATTTATATGTTGTACTTATCCATTTTTATAA [XGTACX_site7441],7.26
18,TATATTTATAGACACACACACAAAAAAAAAAAAAAA [CACACA_site6818],6.95
19,TAATTTTTTTTATTATGTACTTAATAAATGTTAATT [XGTACX_site365],7.19
20,AATAAACATATATGTACACACATATACATATATATA [CACACA_site2848],7.35
21,TTTTTTTTTAATTATGCATGTAAATTATATATTATA [TGCATGCA_site335],7.03
22,TATTTATAATTAAATACACACATATATTATATATTT [CACACA_site616],6.97

row,Sequence,gcPBM binding intensity (ln)
1,TTAGCTACACGCTAATGTACACAAATACAAAGAAAA [XGTACX_site3993],6.94
2,TATACGCATATATAAACACACAAAAAAAAAAAAAAA [CACACA_site2026],6.99
3,TATATTAATTTATATCAACACACAAAATCAATATAC [CACACA_site8518],7.17
4,AAGAATGTTATATTATGATGCTGTCTTTTTTTAAGA [CACACA_negctrl_site251],6.82
5,ATAAAATATTATATATATATATATATATATATATAT [CACACA_negctrl_site215],9.87
6,TGTTAATTAAAACATCATTAATATTATTAAAAATAC [XGTACX_negctrl_site509],7.03
7,TCTTTTTTTACTTTCTTTTTTTTTTTTTTTTTTTTT [XGTACX_negctrl_site610],8.27
8,CCTTTATAAAAAAGTAGTACACAATGAATTTATAAT [XGTACX_site5523],7.1
9,CAATACTAATTGTATACACACAAAAATATACCATAT [CACACA_site3326],6.99
10,AATTGATACCTTACATGTACATAATATATATAAATA [XGTACX_site321],7.16
11,GAACCATTTTTTGGTATACACACGTAATTATATAAT [CACACA_site8552],6.99
12,TTTTTACATACAAATTAACACACATATAGAAAAGAG [CACACA_site8570],8.01
13,ATATAATATTTATATGTACACACCTTAATCCTTAAA [CACACA_site3555],6.94
14,ATAAACGTTTTTGAAAGTACATATCATTCATTTGAT [XGTACX_site200],6.94
15,TTTTAACATATAAGTACACACATATAATCAATCATA [CACACA_site2325],7.25
16,CCTTATAAATACTGCACACATAAAATATATATTATC [CACACA_site2806],7.59
17,TTTTATCGTTTTTTTTTTTTTTTTTTTTTTTTTTTT [CACACA_negctrl_site1309],8.92
18,TTTGTTCATATGAAATGTACAAAAAAAAAAAAAAAA [XGTACX_site8849],6.86
19,ATGTAGAAGTAATGCACACATATGTATTTATATATA [CACACA_site5391],7.26
20,AAAAAAATTAATATGTCAGCACATATATACATACAT [GTGCAC_negctrl_site110],6.93
21,TATATATATAAAAAAGCACACATACATACATACATA [CACACA_site8196],7.89
